Test results: PubChem BioAssay AID488969 (Vanderbilt High Throughput Screening Facility, 2010)
The full ranking holds about 110,000 compounds; the median of “z-score” is about -0.1, and the highest 2% start at about 2. Some of the results follow.

What follows are compounds tested against Metabotropic glutamate receptor 8 (Rattus norvegicus) (UniProt P70579) (assay: mGluR8 Gi/Go-coupled signaling modulation – cell-based, rat, thallium flux, HTS, primary screen (AID 488969)). Conditions: HEK293 rat mGluR8, GIRK (G protein-gated inwardly rectifying potassium channel) thallium flux, FluoZin2; at 10 µM; stronger effect = higher value; submaximal glutamate (EC20) added with thallium.
UniProt P70579, sequence (P70579 whole entry, looked up): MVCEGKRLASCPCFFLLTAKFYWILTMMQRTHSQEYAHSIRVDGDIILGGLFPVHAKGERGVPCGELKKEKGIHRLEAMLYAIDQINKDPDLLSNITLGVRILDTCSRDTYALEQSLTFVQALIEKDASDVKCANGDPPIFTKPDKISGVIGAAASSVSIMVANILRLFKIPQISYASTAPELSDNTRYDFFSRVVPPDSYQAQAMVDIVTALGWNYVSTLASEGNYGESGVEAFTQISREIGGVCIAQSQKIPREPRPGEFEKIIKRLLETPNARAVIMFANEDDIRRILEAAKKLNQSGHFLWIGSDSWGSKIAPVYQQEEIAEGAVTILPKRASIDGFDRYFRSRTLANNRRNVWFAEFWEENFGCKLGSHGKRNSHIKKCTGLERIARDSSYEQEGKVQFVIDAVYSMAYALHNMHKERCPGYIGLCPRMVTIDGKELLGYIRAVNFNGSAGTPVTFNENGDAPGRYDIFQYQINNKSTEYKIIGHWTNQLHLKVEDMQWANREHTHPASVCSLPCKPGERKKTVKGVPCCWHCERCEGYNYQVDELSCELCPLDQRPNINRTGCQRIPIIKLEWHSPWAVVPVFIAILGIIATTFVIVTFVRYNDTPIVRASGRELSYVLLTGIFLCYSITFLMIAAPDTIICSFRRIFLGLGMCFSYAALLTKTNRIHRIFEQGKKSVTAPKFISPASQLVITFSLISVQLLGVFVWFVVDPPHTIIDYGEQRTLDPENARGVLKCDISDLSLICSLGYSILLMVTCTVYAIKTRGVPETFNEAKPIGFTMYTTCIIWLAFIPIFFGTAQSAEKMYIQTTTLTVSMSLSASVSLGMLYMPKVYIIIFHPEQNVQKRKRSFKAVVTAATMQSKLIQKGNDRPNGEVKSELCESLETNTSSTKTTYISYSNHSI

Compared with `Cc1ccc(NC(=S)NC2CCN(Cc3ccccc3)CC2)c(C)c1`, `Cc1ccccc1-c1nc(CN2CCC(C(=O)NCc3cccnc3)CC2)c(C)o1` is lower in z-score: 0.353 for the first, 0.023 for the second.

Compared with `CC(C)n1c2ccccc2c2nc3ccccc3nc21`, `O=c1/c(=C/c2ccccn2)sc2nc3ccccc3n12` is higher in z-score: -0.47 for the first, 0.539 for the second.

Compared with `Cn1c(SCC(N)=O)nnc1C1CCN(S(=O)(=O)c2ccccc2C(F)(F)F)CC1`, `O=C(COC(=O)c1ccccc1S(=O)(=O)N1CCCCC1)NCC(F)(F)F` is higher in z-score: -0.191 for the first, 0.315 for the second.

First: CCC(=O)N1N=C(c2ccc(NS(C)(=O)=O)cc2)CC1c1ccc(C)cc1 (centres undefined)
Second: COc1ccc(C2CC(c3ccc4ccccc4c3)=NN2C(=O)CSc2ncccn2)cc1 (centres undefined)
The z-score of the first is lower: -0.3 for the first, -0.214 for the second.

First: Cc1cc(C)nc(NS(=O)(=O)c2ccc(NC(=O)CN3C(=O)S/C(=C\c4ccccc4)C3=O)cc2)n1
Second: Cc1ccc(NC(=O)Cn2c(O)c(N=NS(=O)(=O)c3ccc(C)cc3)c3ccccc32)cc1
The z-score of the first is lower: -0.203 for the first, -0.179 for the second.

First: COC(=O)C(C)Sc1nnc(Cc2cc(=O)[nH]c(=O)[nH]2)n1-c1cc(C)ccc1C (centres undefined)
Second: Cc1ccc(-n2c(C)cc(/C=N/NC(=O)CN(c3ccc(C)cc3C)S(C)(=O)=O)c2C)cc1
The z-score of the first is higher: 0.0555 for the first, 0.00989 for the second.

Going from `COc1ccc(C2/C(=C(/O)c3ccc(C)cc3)C(=O)C(=O)N2C)cc1` (centres undefined) to `COc1ccc(N2C(=O)CC(N3CCN(c4ccc(S(C)(=O)=O)cc4)CC3)C2=O)cc1` (centres undefined), the z-score rises from -0.11 to 0.0874.

Compared with `CCCCn1c(N2CCC(Cc3ccccc3)CC2)nc2c1c(=O)[nH]c(=O)n2C`, `CCCc1nc(SCC(=O)N2CCC(Cc3ccccc3)CC2)c2c(=O)n(C)c(=O)n(C)c2n1` is higher in z-score: 0.326 for the first, 1.98 for the second.

Going from `CCOC(=O)c1c(NC(C)=O)sc2c(OC(C)=O)cccc12` to `CCOC(=O)c1c(C)[nH]c(C)c1C(=O)COC(=O)c1ccccc1O`, the z-score rises from 0.184 to 0.517.

Compared with `O=C(CN1C(=O)c2cccc3cccc1c23)NCc1cccnc1`, `O=C(NCc1ccc(N2CCCC2=O)cc1)Nc1cccc2ccccc12` is lower in z-score: -0.0427 for the first, -0.109 for the second.

Compared with `S=c1[nH]nc(-c2ccccc2)o1`, `Cc1cc(C(=O)N(C)C)sc1-c1ccccc1` is lower in z-score: -0.0494 for the first, -0.146 for the second.

First: Cc1ccc(N(Cc2ccccc2F)S(C)(=O)=O)cc1C
Second: Cc1cc(=O)n(C)c(=O)n1CCCNc1ccccc1
The z-score of the first is lower: 0.0251 for the first, 0.349 for the second.

Going from `Cc1ccc(N=C2NC(=O)CS2)c(C)c1` to `Cc1ccc(-n2[nH]c(C)c(C=NC34CN5CN(CN(C5)C3)C4)c2=O)cc1C`, the z-score falls from -0.0325 to -0.126.

First: CN(C(=O)COC(=O)COc1ccc(Cl)cc1)C1CCCCC1
Second: O=C(COc1ccc(Cl)cc1)NCc1nnc(SCC(=O)NC2CCCC2)o1
The z-score of the first is lower: -1.21 for the first, 0.0955 for the second.

First: CC(/C=N/NC(=O)CSc1nnc(SCc2ccccc2)s1)=C\c1ccco1
Second: CCn1c(SCC(=O)N/N=C/C=C/c2ccccc2[N+](=O)[O-])nnc1-c1ccccc1
The z-score of the first is lower: -0.249 for the first, -0.243 for the second.

First: Cc1ccc(C2CC(=O)Nc3cc4c(cc32)OCO4)o1 (centres undefined)
Second: CCCCN(CC)C(=O)c1ccc2c(c1)OCO2
The z-score of the first is higher: -0.134 for the first, -0.883 for the second.

First: CCOC(=O)Cc1csc(NC(=O)c2ccc(Cl)nc2)n1
Second: Cc1csc(NC(=O)CCNC(=O)c2ccc([N+](=O)[O-])cc2)n1
The z-score of the first is lower: 0.0254 for the first, 0.939 for the second.

Compared with `CCOC(=O)C1CCCN(C(=O)CN2CCN(Cc3ccc(Cl)cc3)C2=O)C1` (centres undefined), `Cc1ccc(CNC(=O)CN2CCN(Cc3ccc(Cl)cc3)C2=O)cc1` is higher in z-score: -0.371 for the first, 0.18 for the second.

First: CCSc1cc(N2CC(C)OC(C)C2)nc(-c2ccccc2Cl)n1 (centres undefined)
Second: COC(=O)CSc1nc(C)cc(Oc2ccccc2)n1
The z-score of the first is higher: -0.199 for the first, -0.406 for the second.

First: Cc1ccc(S(=O)(=O)NCCCN(C)C)cc1
Second: CCOC(=O)COc1ccc(S(=O)(=O)NCC2CCCO2)cc1 (centres undefined)
The z-score of the first is higher: 2.95 for the first, 0.355 for the second.

Going from `N#Cc1c(-c2ccc(Cl)cc2Cl)nc2n(c1=O)CCS2` to `N#C/C(=C\c1c(Cl)cccc1Cl)c1nc2ccccc2o1`, the z-score rises from -0.773 to -0.471.

First: Cc1ccc(-n2nnnc2SCC(=O)NNC(=O)c2ccco2)cc1C
Second: O=C(CSc1nc2ccccc2c(=O)n1-c1ccc(Cl)cc1)c1ccco1
The z-score of the first is lower: -0.193 for the first, 0.876 for the second.

Compared with `COC(=O)c1cc2ccsc2n1Cc1nc(-c2ccc(OC)cc2)oc1C`, `CCOC(=O)c1c(-c2ccc(OC)cc2)csc1NC(=O)COc1ccc2c(C)cc(=O)oc2c1` is higher in z-score: -0.672 for the first, -0.148 for the second.

Compared with `CNC(=O)c1sc(SC)cc1-c1ccc(Cl)cc1`, `O=C(Nc1ccc(Cl)cn1)c1ccccc1F` is higher in z-score: -0.487 for the first, 0.159 for the second.

Compared with `COc1ccccc1NC(=O)CSc1nc2ccccc2cc1Cc1ccccc1`, `COc1ccc(-n2c(N)c(C(=O)NCc3ccco3)c3nc4ccccc4nc32)cc1` is lower in z-score: -0.195 for the first, -0.202 for the second.

First: COC(=O)c1c(NC(NC(=O)C(C)(C)C)C(Cl)(Cl)Cl)sc2c1CCC2 (centres undefined)
Second: CCN(CC)C(=O)c1sc(N)c(C(=O)OC(C)C)c1C
The z-score of the first is higher: -0.0333 for the first, -0.929 for the second.

First: Cc1ccccc1-n1c(SCc2ccccn2)nc2n[nH]c(C)c2c1=N
Second: Cc1cccn2cc(CNc3ccccc3)nc12
The z-score of the first is lower: -2.33 for the first, -0.0695 for the second.

Compared with `COCCN(Cc1cc2cc(C)cc(C)c2nc1Cl)C(=O)Nc1ccccc1`, `Cc1c(C(=O)Nc2ccccc2)sc2nc[nH]c(=O)c12` is higher in z-score: -0.621 for the first, -0.184 for the second.

Going from `CC1(C)Cc2c(ccc3ccccc23)/C(=C/C#N)N1` to `Cc1ccc(C(=O)CSc2nnc(-c3c[nH]c4ccccc34)o2)cc1`, the z-score rises from -0.163 to -0.00485.

First: O=C(Cc1ccc(-n2cccc2)cc1)N1CCN(c2ccccc2F)CC1
Second: Cn1c(SCC(=O)N2CCN(c3ccccc3)CC2)nnc1-c1ccco1
The z-score of the first is lower: -0.527 for the first, 0.14 for the second.

First: CCC1CCCCN1CCCNC(=O)C1CCN(S(=O)(=O)N2CCCCC2)CC1 (centres undefined)
Second: Cn1c(CN2CCOCC2)nnc1SCC(=O)NC1CCCCC1
The z-score of the first is higher: 1.23 for the first, -0.936 for the second.

First: O=C(c1ccc([N+](=O)[O-])cc1)N1CCN(C(=O)c2cccs2)CC1
Second: COc1ccc(C(=O)/C=C/c2ccccc2OC)c(OC(=O)c2ccc([N+](=O)[O-])cc2)c1
The z-score of the first is higher: 0.0319 for the first, -0.041 for the second.

Going from `CCOc1ccc(N(CC)C(=O)COc2cc(=O)n(CC)c3ccccc23)cc1` to `COc1cccc(CNC(=O)Cn2c(=O)oc3ccccc32)c1OC`, the z-score rises from -0.88 to -0.299.

First: CNC(=O)C1CCCN1S(=O)(=O)c1ccc(OC)cc1 (centres undefined)
Second: Cc1ccc(S(=O)(=O)N2CCCOC2CNC(=O)C(=O)NCCc2c[nH]c3ccccc23)cc1 (centres undefined)
The z-score of the first is lower: -0.204 for the first, -0.2 for the second.

Going from `CN(C)S(=O)(=O)c1ccc(NC(=O)COc2ncnc3c2cnn3-c2ccccc2)cc1` to `Cc1nc2ccc(S(=O)(=O)NCC(=O)N3CCc4ccccc4C3)cc2s1`, the z-score rises from -0.521 to 0.0372.

Going from `O=C(NC1CCCCC1)c1cc2nc(-c3ccco3)cc(C(F)(F)F)n2n1` to `Cc1ccccc1-c1nnc(SCC(=O)NC2CCCCC2)o1`, the z-score falls from 0.238 to -0.392.

Going from `N#CC1=C(SCC(=O)Nc2ccccc2)NC(=O)CC1c1ccco1` (centres undefined) to `O=C(CSc1nc(-c2ccccc2)cc(C(F)(F)F)n1)NCc1ccco1`, the z-score rises from -1.22 to -0.00949.

First: CCCCn1c(SCc2nc3ccccc3s2)nc2cc(S(N)(=O)=O)ccc21
Second: CCc1nnc(NC(=O)CSc2nc3ccccc3o2)s1
The z-score of the first is lower: -0.0671 for the first, -0.0157 for the second.

First: COc1cccc(C(=O)OCCCN(C)C)c1
Second: COc1cc(OC)cc(C(=O)NCCSCc2ccco2)c1
The z-score of the first is higher: 0.592 for the first, 0.229 for the second.

First: O=C(CSc1nnnn1C1CCCC1)NCc1ccc2c(c1)OCO2
Second: COc1ccc(CN(C(=O)CN2C(=O)COc3ccccc32)C2CCCC2)c(OC)c1
The z-score of the first is higher: 0.249 for the first, 0.103 for the second.

First: CC(O)C1CCC2C3CC[C@H]4CC(O)CCC4(C)C3CC3(OCCO3)C12C (some centres undefined)
Second: O=C(CSc1nnc(-c2ccco2)n1CC1CCCO1)N1CCCCC1 (centres undefined)
The z-score of the first is lower: 0.165 for the first, 0.298 for the second.

First: O=C(O)/C(=C\c1cccc(F)c1)c1ccc(S(=O)(=O)N2CCCCC2)s1
Second: COc1ccccc1NC(=O)c1cc(S(=O)(=O)N2CCOCC2)ccc1Cl
The z-score of the first is lower: -1.42 for the first, -0.185 for the second.

First: O=C(COC(=O)CN1C(=O)C2CC=CCC2C1=O)Nc1cc(C(F)(F)F)ccc1N1CCOCC1 (centres undefined)
Second: Cc1c(-c2ccccc2)nc2ccccc2c1C(=O)OCC(=O)Nc1ncc(C(F)(F)F)cc1Cl
The z-score of the first is higher: 0.545 for the first, 0.00577 for the second.

Going from `CC(C)C[C@H](NC(=O)OC(C)(C)C)c1n[nH]c(=S)n1N` to `CCOC(=O)c1ccccc1NC(=O)/C=C/c1cc(OC)c(OC)c(OC)c1`, the z-score falls from 0.357 to -0.542.

First: CCOc1ccc(S(=O)(=O)n2ccnc2)c2ccccc12
Second: COc1ccc(Nc2nc(-c3ccccc3)cs2)cc1
The z-score of the first is higher: -0.173 for the first, -0.21 for the second.

First: COC(=O)C1=C(N)Oc2cc(C)[nH]c(=O)c2C1c1ccncc1 (centres undefined)
Second: COc1ccc(/C=N/NC(=O)CNc2n[nH]c(=O)[nH]c2=O)cc1OC
The z-score of the first is higher: 0.316 for the first, 0.124 for the second.

Compared with `Cc1cc(NC(=O)CSCCO)no1`, `CCn1c2ccccc2c2cc(NC(=O)CSc3nnc(C4CC4)n3Cc3ccco3)ccc21` is higher in z-score: 0.0318 for the first, 0.385 for the second.

Going from `O=C(Cc1cccs1)Nc1ccc(Cl)cc1` to `N/C(=N\OC(=O)c1ccc(Cl)cc1)c1ccccn1`, the z-score falls from 0.318 to -0.296.

First: Cc1ccc(N2C(=O)C3C4CC(=O)C(c5ccccc54)C3C2=O)cc1 (centres undefined)
Second: CCCCCOc1ccc(N2C(=O)C3C4C=CC(C3C2=O)N(C)C4=O)cc1 (centres undefined)
The z-score of the first is higher: 0.0115 for the first, -0.0236 for the second.

First: CC1CCCCN1C(=O)CSc1nnc(-c2ccc(Cl)s2)o1 (centres undefined)
Second: O=C(Cn1ncc2c1-c1ccccc1OC2)N1CCN(c2ccccn2)CC1
The z-score of the first is lower: -0.789 for the first, 0.0305 for the second.

Going from `Cc1cccc(N2CCN(C(=O)Cn3cnc4c3c(=O)n(C)c(=O)n4C)CC2)c1C` to `Cc1cc(C)n(S(=O)(=O)c2cc(C(=O)O)c(Cl)cc2Cl)n1`, the z-score rises from -0.973 to -0.129.

Compared with `S=C(Nc1cccc(Br)c1)c1ccccc1`, `Cc1ccccc1NC1C=CS(=O)(=O)C1` (centres undefined) is lower in z-score: 1.85 for the first, -0.358 for the second.

Going from `COc1cc(C2C(C#N)=C(N)N(c3sc4c(c3C#N)CCCC4)C3=C2C(=O)CC(C)(C)C3)cc(OC)c1OC` (centres undefined) to `Cc1ccc(N2C(=O)C3CC(c4ccccc4)=C4C5C=CC(C6C(=O)N(c7ccc(C)cc7C)C(=O)C56)C4C3C2=O)c(C)c1` (centres undefined), the z-score rises from -0.451 to 0.179.

Going from `CCc1nnc(NC(=O)c2ccc(S(=O)(=O)N(CC)CC)cc2)s1` to `Cc1ccccc1NCN1C(=O)C2C3C=CC(C3)C2C1=O` (centres undefined), the z-score rises from -0.43 to -0.234.

Compound `COc1ccc(N=c2cc(-c3ccc(OC)cc3)oc3ccccc23)cc1` has a z-score of -0.0327.
